Data taken from PubChem BioAssay AID2147 (National Center for Advancing Translational Sciences (NCATS), 2009).
In all, about 230,000 compounds went through this assay and about 3,600 (1.6%) were called active. Inconclusive results, whose numbers are uncertain, are shown with a selection of clear calls. The call rests on the fitted dose curve; in most records, active means well fitted inhibition curve with a large enough effect (not every such curve was filed as active); inconclusive means small, poorly fitted or top-dose-only effect, or another doubt; inactive means no such curve, though single readings can be large or run the other way. Potencies of inconclusive entries are doubtful fits and often do not repeat.

molecular target: Lysine-specific demethylase 4E (Homo sapiens) (UniProt B2RXH2); test: qHTS Assay for Inhibitors of Human Jumonji Domain Containing 2E (JMJD2E); conditions: JMJD2E catalytic domain, FDH-coupled NADH fluorescence (FDH is formaldehyde dehydrogenase); series mostly up to 57.1 µM; activity change, negative = inhibition: at the top concentration
Further: nearly all actives have a fitted effect of over 50% in size.
Potency means the concentration at half of the fitted maximal effect; tags describe the fitted curve by direction and shape.
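Wherever activity change, negative = inhibition is given: 0% = wells with enzyme and -100% = buffer wells without enzyme.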

UniProt B2RXH2, sequence (B2RXH2 whole entry, looked up, the tested form may be a part): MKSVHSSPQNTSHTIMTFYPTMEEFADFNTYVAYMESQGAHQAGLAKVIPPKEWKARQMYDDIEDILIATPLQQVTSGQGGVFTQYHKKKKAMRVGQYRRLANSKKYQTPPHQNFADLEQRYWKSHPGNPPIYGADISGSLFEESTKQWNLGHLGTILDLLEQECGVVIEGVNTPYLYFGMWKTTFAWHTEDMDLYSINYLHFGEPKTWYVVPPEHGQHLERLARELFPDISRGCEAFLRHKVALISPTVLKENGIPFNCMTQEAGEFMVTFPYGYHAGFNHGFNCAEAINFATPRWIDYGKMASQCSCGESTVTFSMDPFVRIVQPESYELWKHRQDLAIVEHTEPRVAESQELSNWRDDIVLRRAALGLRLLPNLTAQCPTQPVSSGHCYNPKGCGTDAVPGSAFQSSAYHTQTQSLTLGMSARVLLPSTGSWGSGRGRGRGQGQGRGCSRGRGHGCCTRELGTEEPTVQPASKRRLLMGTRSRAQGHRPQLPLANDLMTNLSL

Compound	activity change, negative = inhibition	Potency
CN1C(=O)/C(=C2/C=CC=CN2C)OC1=S	inactive: -0.155%	
O=C(CCCC(=O)N1CCCc2ccccc21)N1CCCc2ccccc21	inactive: -2.88%	
Cc1ccc(-n2[nH]c(C)c(/C=N/Nc3ccc([N+](=O)[O-])cc3[N+](=O)[O-])c2=O)cc1	inactive: -12%	
Cc1cccc(NC(=O)c2ccccc2NC(=O)C2CCCCC2)c1C		inconclusive: 39.8 µM [inhibitor, single point]
O=C1/C(=C/c2cccnc2)CC/C1=C\c1cccnc1	inactive: 1.69%	
CCOC(=O)C1=C(Cc2ccc(F)cc2)C(=O)c2ccccc2C1=O		inconclusive: 3.55 µM [inhibitor, single point]
O=C(NNS(=O)(=O)c1ccccc1)c1sccc1-n1cccc1	inactive: 0.868%	
CCCCCCSc1ncc(C#N)c(N)n1		inconclusive: 25.1 µM [inhibitor, single point]
COc1ccc(-c2cc(C(F)(F)F)n3nc(C(=O)N4CCCCC4)cc3n2)cc1		inconclusive: 25.1 µM [inhibitor, partial curve]
CCc1nnc(NC(=O)c2ccc(-c3ccc(F)cc3)o2)s1		inconclusive: 31.6 µM [inhibitor, partial curve]
CCc1c(C)sc(NC(=O)c2cc(CC(C)C)on2)c1C#N	inactive: 36%	
CC(C)(C)OC(=O)NCCCC[C@H](NC(=O)c1[nH]cnc1C(=O)Nc1ccc(CNC(=O)OC(C)(C)C)cc1)C(=O)OC(C)(C)C		inconclusive: 39.8 µM [inhibitor, single point]
Cc1ccc(CN2CCN(Cc3cccn3-c3ccccn3)CC2CCO)cc1 (stereo unspecified)	inactive: -2.88%	
Cc1ccc(NC(=O)CCc2c(C)nc3ncnn3c2C)cc1	inactive: -1.09%	
Cc1ccc(S(=O)(=O)NNC(=O)Cc2cccn2C)cc1		inconclusive: 63.1 µM [inhibitor, partial curve, poor fit]
Cc1cc2oc(=O)c3c(c2cc1OCc1nn[nH]n1)CCCC3		inconclusive: 25.1 µM [inhibitor, partial curve]
CC1(C)OC(c2ccccc2)=C/C(=C\C=N\NC(=O)c2ccncc2)O1		active: 22.4 µM
CC(C)NC(=O)c1c(O)c2ccccc2[nH]c1=O		inconclusive: 35.5 µM [inhibitor, single point]
COc1cc(C2C(C#N)=C(N)Oc3c2c(-c2ccccc2)nn3-c2ccccc2)cc(OC)c1OC (stereo unspecified)		inconclusive: 39.8 µM [inhibitor, single point]
CN1CCC/C1=C1/C(=O)N(c2ccccc2)N=C1NC(=O)Nc1cccc(Cl)c1	inactive: -6.55%	
CCOC(=O)C1=C(C)N=C2SC(C)C(=O)N2C1c1cccc(F)c1 (stereo unspecified)	inactive: -3.11%	
CCOC(=O)c1c(-c2ccccc2)oc2ccc(OCC)cc12		inconclusive: 28.2 µM [inhibitor, partial curve]
CC(C)CCN1CCN(Cc2cccn2-c2nccs2)CC1CCO (stereo unspecified)	inactive: -13.5%	
COc1ccc(C2CC(=O)c3cnc(N4CCc5ccccc54)nc3C2)cc1OC (stereo unspecified)		inconclusive: 3.55 µM [inhibitor, partial curve]

Compound	activity change, negative = inhibition	Potency
O=C(Nc1nc(-c2ccccn2)cs1)c1ccc2c(c1)OCCO2		inconclusive: 39.8 µM [inhibitor, single point]
Cc1cc(=O)n2nc(-c3ccccc3)sc2n1		inconclusive: 28.2 µM [inhibitor, partial curve]
C=CCNC(=S)/N=c1/scc(C)n1C		inconclusive: 4.47 µM [inhibitor, single point]
O=C(CNS(=O)(=O)c1cccc(Cl)c1)Nc1ccc(-c2nc3ccccc3s2)cc1		inconclusive: 25.1 µM [inhibitor, partial curve]
O=C(Cc1cccs1)Nc1nnc(SCc2ccc(C(F)(F)F)cc2)s1	inactive: 7.66%	
O=C(O)CCCCCCNC(=O)c1cncc(O)c1		inconclusive: 20 µM [inhibitor, partial curve]
CC(C)C(c1nnnn1C1CCCC1)N1CCOCC1 (stereo unspecified)	inactive: 6.72%	
COc1ccc(N(C)C(=O)Nc2ccc3c(c2)nnn3C)cc1		inconclusive: 14.1 µM [inhibitor, partial curve]
CCOC(=O)c1ccc(N2C(=O)C(O)=C(C(C)=O)C2c2ccccn2)cc1 (stereo unspecified)		inconclusive: 22.4 µM [inhibitor, single point]
COC(=O)c1cc(OC)c(OC)cc1NC(=O)C1CCC(=O)N1S(=O)(=O)c1ccc(C)cc1 (stereo unspecified)		inconclusive: 39.8 µM [inhibitor, single point]
CCc1nc(NCc2ccccn2)c2oc3ccccc3c2n1		inconclusive: 39.8 µM [inhibitor, single point]
CCOc1ccc(OCCN2C(=O)NC3(CCCc4ccccc43)C2=O)cc1 (stereo unspecified)	inactive: 1.99%	
CCCCC(=O)Nc1ccc2oc(-c3cccnc3)nc2c1		inconclusive: 28.2 µM [inhibitor, partial curve]
CC(C)N(CCNC(=O)C1CCN(S(=O)(=O)N2CCOCC2)CC1)Cc1ccccc1	inactive: 8.1%	
CCOc1ccccc1NC(=O)CSC1=C(C#N)C(c2ccco2)C(C(=O)Nc2nc3ccccc3s2)=C(C)N1 (stereo unspecified)		inconclusive: 28.2 µM [inhibitor, partial curve]
CC(=O)Nc1ccc2nc(NC(=O)COc3cccc(C)c3)sc2c1		inconclusive: 35.5 µM [inhibitor, single point]
Cc1ccc(CSc2nnc(NC(=O)Cn3cnc4ccccc4c3=O)s2)cc1		inconclusive: 28.2 µM [inhibitor, single point]
COc1cccc(Nc2c3c(nc4c(-c5ccccc5)c(C)nn24)CCC3)c1		inconclusive: 28.2 µM [inhibitor, partial curve]
COc1cccc(C2C3=C(N=c4s/c(=C\c5cccc(O)c5)c(=O)n42)c2ccccc2CC3)c1OC (stereo unspecified)	inactive: -20%	
Cc1ccc(-c2cc(C(F)F)nc(N3CCOCC3)n2)cc1		inconclusive: 39.8 µM [inhibitor, single point]
O=C(N/N=C/c1cn(-c2ccccc2)nc1-c1cc2ccccc2o1)c1c[nH]c2ccccc12	inactive: 4.67%	
O=C(C1CCN(c2ncnc3c2sc2cccc(F)c23)CC1)N1CCOCC1		inconclusive: 39.8 µM [inhibitor, single point]
CC(C)(C)c1ccccc1NC(=O)c1c(O)c2cccc3c2n(c1=O)CC3		inconclusive: 39.8 µM [inhibitor, single point]
COc1ccc(CCN(/C=C2\Sc3ccccc3C2=O)C(C)=O)cc1OC		active: 31.6 µM

Compound	activity change, negative = inhibition	Potency
Cc1ccc(Nc2nc(N)nc(CSc3nccn3C)n2)cc1		inconclusive: 35.5 µM [inhibitor, single point]
COc1ccc(C(CNC(=O)Cn2[nH]c(=O)c3ccccc3c2=O)N2CCCC2)cc1 (stereo unspecified)		inconclusive: 31.6 µM [inhibitor, single point]
O=C(Nc1cccc(Cl)c1N1CCCCC1)c1ccc2c(c1)OCCO2		inconclusive: 35.5 µM [inhibitor, single point]
COC(=O)c1cc(NC(=O)Cc2ccccc2[N+](=O)[O-])ccc1Cl		inconclusive: 7.08 µM [inhibitor, single point]
O=C(CSCc1ccccn1)Nc1ccccc1	inactive: -0.609%	
N#Cc1cccnc1N1CCN(C(=O)COCC(=O)O)CC1		inconclusive: 22.4 µM [inhibitor, partial curve]
C=CCNC(=S)N/N=C/c1ccc(N(CC)Cc2ccccc2)cc1		inconclusive: 28.2 µM [inhibitor, partial curve]
CCOc1ccc2[nH]c3c(N4CCC5(CC4)OCCO5)ncnc3c2c1		inconclusive: 31.6 µM [inhibitor, partial curve]
COc1ccccc1CNCC(=O)Nc1cc(S(=O)(=O)N2CCCCCC2)ccc1Cl		inconclusive: 39.8 µM [inhibitor, single point]
COc1cc2ncnc(NCc3ccccc3)c2cc1OC		inconclusive: 39.8 µM [inhibitor, single point]
CCC(c1nnnn1Cc1ccco1)N(Cc1cc2cc(OC)ccc2[nH]c1=O)C1CCCCC1 (stereo unspecified)		inconclusive: 35.5 µM [inhibitor, partial curve]
Cc1c(NC(=O)CSc2ccc(Cl)cc2)cccc1-c1nc2cc(Cl)ccc2o1	inactive: 7.77%	
Cc1ccc(-n2nc3c(c2NC(=O)c2ccc4c(c2)OCO4)CSC3)c(C)c1		inconclusive: 39.8 µM [inhibitor, single point]
O=C(N/N=C/c1ccc(O)c(O)c1)C1c2ccccc2Oc2ccccc21		active: 14.1 µM
CC(C)(C)C(=O)Nc1ccc(-c2nc3ccccc3c(=O)o2)cc1		inconclusive: 7.08 µM [inhibitor, single point]
O=c1c(N2CCOCC2)coc2ccccc12		inconclusive: 35.5 µM [inhibitor, single point]
O=C(CCN1C(=O)C2CCCCC2C1=O)Nc1nc(-c2ccc(F)c(F)c2)cs1 (stereo unspecified)	inactive: -0.912%	
Nc1c(NCc2ccccc2)c2ccccc2oc1=O		inconclusive: 22.4 µM [inhibitor, partial curve]
CC(=O)c1cc2c(cc1NC(=O)CCc1ccccc1)OCO2		inconclusive: 35.5 µM [inhibitor, single point]
S=C(NCc1ccccn1)Nc1ccccc1	inactive: 7.17%	
COC(=O)C1=C(C)NC=C([N+](=O)[O-])C1c1ccc(OC)cc1 (stereo unspecified)	inactive: 1.13%	
Cc1c(CC(C)(C)C(=O)O)n(Cc2ccc(Cl)cc2)c2ccc(F)cc12		inconclusive: 35.5 µM [inhibitor, partial curve]
CCN(CC)C(=O)c1sc2nc(-c3cccs3)cc(-c3ccc(Cl)cc3)c2c1N		inconclusive: 14.1 µM [inhibitor, partial curve]
